Assay results taken from US20230174655A1 (published 2023).

Biological target: T1, FcγRIIa type R extracellular domain with C-terminal His tag (human, UniProt P12318 34-217)
T1 construct: extracellular domain; also called FcγRIIa R; FcγRIIaR
T1 sequence (looked up): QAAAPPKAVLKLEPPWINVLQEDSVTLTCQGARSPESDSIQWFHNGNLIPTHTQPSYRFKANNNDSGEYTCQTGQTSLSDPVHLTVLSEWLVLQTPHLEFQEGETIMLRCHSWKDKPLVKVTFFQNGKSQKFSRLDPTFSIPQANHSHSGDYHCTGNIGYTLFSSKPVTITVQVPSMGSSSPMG
Assay: SPR, antibody captured on Protein A, FcγR analyte, 1:1 kinetics

Kd: 12 µM
B1: IgG1-v1 (antibody)
heavy: QVQLQESGPGLVKPSETLSLTCAVSGHSISHDHAWSWVRQPPGEGLEWIGFISYSGITNYNPSLQGRVTISRDNSKNTLYLQMNSLRAEDTAVYYCARSLARTTAMDYWGEGTLVTVSS[here human IgG1 constant region with P238D (EU numbers) without letters]
light: DIQMTQSPSSLSASVGDRVTITCRASQDISSYLNWYQQKPGKAPKLLIYYTSRLHSGVPSRFSGSGSGTDFTFTISSLQPEDIATYYCQQGNTLPYTFGQGTKVEIKRTVAAPSVFIFPPSDEQLKSGTASVVCLLNNFYPREAKVQWKVDNALQSGNSQESVTEQDSKDSTYSLSSTLTLSKADYEKHKVYACEVTHQGLSSPVTKSFNRGEC
notes: H chain: IL6R-G1d with P238D (EU numbering); also called IL6R-G1d-v1/IL6R-L; copies: 2 + 2
